Source: the supplement of paper PMC10037445
The full ranking holds about 2,900 compounds; the median of “IRF Lucia reporter activity, fold change vs agonist alone” is about 0.9, and the highest 2% start at about 2.8. The list shows a part of the results.

Experiments:
RAW-Dual [1] = test: IRF Lucia reporter activity, fold change vs agonist alone; cytotoxicity flag (confluency mask): not cytotoxic; higher = enhanced IRF activity
How it was run: (§1)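 After 50 nL of library stock was delivered by pin tool to RAW-Dual macrophages (50,000 cells/well, DMEM, 384-well plates), a PRR agonist was added 1 h later and the plates were kept at 37 °C, 5% CO2. Twenty hours later, IRF was read from supernatant by QuantiLuc luminescence and NF-κB by QuantiBlue absorbance at 620 nm. Reporter activity is stated as fold change over agonist-alone wells. Wells with IncuCyte confluency under 70% of agonist controls in both mask sets were counted as cytotoxic.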

RAW-Dual [2] = test: IRF Lucia reporter activity, fold change vs agonist alone; cytotoxicity flag (confluency mask): cytotoxic (confluency <70% of control); higher = enhanced IRF activity
How it was run: as §1

RAW-Dual [3] = test: IRF Lucia reporter activity, fold change vs agonist alone; higher = enhanced IRF activity; details: library stock concentration (final ~1000-fold dilution): 10 mM, agonist: MPLA (TLR4) […]
How it was run: as §1

[4] = agonist: 3'3'-cGAMP (STING) 10 ug/mL
[5] = cytotoxicity flag (confluency mask): not cytotoxic

Cc1c(CN2CCC(Nc3ncnc4sc(CC(F)(F)F)cc34)CC2)ccc2[nH]c(C#N)cc12 (library stock concentration (final ~1000-fold dilution): 10 mM)
IRF Lucia reporter activity (RAW-Dual [1]; [4]): 0.265 | IRF Lucia reporter activity (RAW-Dual [1]; agonist: LPS (TLR4) 0.1 ug/mL): 0.691

O=[N+]([O-])c1ccc(Sc2cccc[n+]2[O-])c2nonc12 (library stock concentration (final ~1000-fold dilution): 10 mM)
IRF Lucia reporter activity (RAW-Dual [2]; [4]): 0.262 | IRF Lucia reporter activity (RAW-Dual [2]; agonist: LPS (TLR4) 0.1 ug/mL): 0.0128

O=C1NC(=O)C(c2cn3c4c(cccc24)CCC3)C1c1c[nH]c2ccccc12 (stereo unspecified) (library stock concentration (final ~1000-fold dilution): 10 mM)
IRF Lucia reporter activity (RAW-Dual [1]; [4]): 0.237 | IRF Lucia reporter activity (RAW-Dual [1]; agonist: LPS (TLR4) 0.1 ug/mL): 1.25

O=C1NC(=O)C(c2cn3c4c(cccc24)CCC3)C1c1c[nH]c2ccccc12 (stereo unspecified)
IRF Lucia reporter activity (RAW-Dual [3]; [5]): 1.84

NC(=O)c1ccc(I)c([N+](=O)[O-])c1
IRF Lucia reporter activity (RAW-Dual [3]; [5]): 0.87

NC(=O)c1ccc(I)c([N+](=O)[O-])c1 (library stock concentration (final ~1000-fold dilution): 10 mM)
IRF Lucia reporter activity (RAW-Dual [1]; [4]): 0.75 | IRF Lucia reporter activity (RAW-Dual [1]; agonist: LPS (TLR4) 0.1 ug/mL): 1.01

CC(C)c1nc(N(C)S(C)(=O)=O)nc(-c2ccc(F)cc2)c1/C=C/C(O)CC(O)CC(=O)O (stereo unspecified)
IRF Lucia reporter activity (RAW-Dual [3]; [5]): 0.953

CC(C)c1nc(N(C)S(C)(=O)=O)nc(-c2ccc(F)cc2)c1/C=C/C(O)CC(O)CC(=O)O (stereo unspecified) (library stock concentration (final ~1000-fold dilution): 10 mM)
IRF Lucia reporter activity (RAW-Dual [1]; [4]): 0.669 | IRF Lucia reporter activity (RAW-Dual [1]; agonist: LPS (TLR4) 0.1 ug/mL): 1.16

CCOc1ccc2nc(S(N)(=O)=O)sc2c1
IRF Lucia reporter activity (RAW-Dual [3]; [5]): 1.03

CCOc1ccc2nc(S(N)(=O)=O)sc2c1 (library stock concentration (final ~1000-fold dilution): 10 mM)
IRF Lucia reporter activity (RAW-Dual [1]; [4]): 1.03 | IRF Lucia reporter activity (RAW-Dual [1]; agonist: LPS (TLR4) 0.1 ug/mL): 1.07

COC(=O)c1ccc(O)c(OC)c1 (library stock concentration (final ~1000-fold dilution): 10 mM)
IRF Lucia reporter activity (RAW-Dual [1]; [4]): 0.836 | IRF Lucia reporter activity (RAW-Dual [1]; agonist: LPS (TLR4) 0.1 ug/mL): 1.1

CS(=O)(=O)c1ccc(-c2nnc(/C=C/c3nnc(-c4ccc(C#N)cc4)o3)n2-c2ccccc2Cl)nc1
IRF Lucia reporter activity (RAW-Dual [3]; [5]): 0.824

CS(=O)(=O)c1ccc(-c2nnc(/C=C/c3nnc(-c4ccc(C#N)cc4)o3)n2-c2ccccc2Cl)nc1 (library stock concentration (final ~1000-fold dilution): 10 mM)
IRF Lucia reporter activity (RAW-Dual [1]; [4]): 0.734 | IRF Lucia reporter activity (RAW-Dual [1]; agonist: LPS (TLR4) 0.1 ug/mL): 0.946

CN(C)CCC(c1ccc(Cl)cc1)c1ccccn1.O=C(O)/C=C\C(=O)O (stereo unspecified) (library stock concentration (final ~1000-fold dilution): 10 mM)
IRF Lucia reporter activity (RAW-Dual [1]; [4]): 1.01 | IRF Lucia reporter activity (RAW-Dual [1]; agonist: LPS (TLR4) 0.1 ug/mL): 0.973

CN(C)CCC(c1ccc(Cl)cc1)c1ccccn1.O=C(O)/C=C\C(=O)O (stereo unspecified)
IRF Lucia reporter activity (RAW-Dual [3]; [5]): 0.725

COc1cc2c(cc1OC(C)C)C(c1ccc(Cl)cc1)N(c1ccc(N(C)CC3CCC(N4CCN(C)C(=O)C4)CC3)cc1)C(=O)C2 (stereo unspecified) (library stock concentration (final ~1000-fold dilution): 10 mM)
IRF Lucia reporter activity (RAW-Dual [1]; [4]): 0.135 | IRF Lucia reporter activity (RAW-Dual [1]; agonist: LPS (TLR4) 0.1 ug/mL): 1.35

COc1cc2ncnc(Nc3cccc(Cl)c3)c2cc1OC
IRF Lucia reporter activity (RAW-Dual [3]; cytotoxicity flag (confluency mask): cytotoxic (confluency <70% of control)): 0.437

COc1cc2ncnc(Nc3cccc(Cl)c3)c2cc1OC (library stock concentration (final ~1000-fold dilution): 10 mM)
IRF Lucia reporter activity (RAW-Dual [2]; [4]): 0.306 | IRF Lucia reporter activity (RAW-Dual [2]; agonist: LPS (TLR4) 0.1 ug/mL): 0.352

O=c1oc2cc(O)ccc2s1 (library stock concentration (final ~1000-fold dilution): 10 mM)
IRF Lucia reporter activity (RAW-Dual [1]; [4]): 0.996 | IRF Lucia reporter activity (RAW-Dual [1]; agonist: LPS (TLR4) 0.1 ug/mL): 1.06

O=c1oc2cc(O)ccc2s1
IRF Lucia reporter activity (RAW-Dual [3]; [5]): 0.999

O=C(O)c1ccccc1O (library stock concentration (final ~1000-fold dilution): 10 mM)
IRF Lucia reporter activity (RAW-Dual [1]; [4]): 1.08 | IRF Lucia reporter activity (RAW-Dual [1]; agonist: LPS (TLR4) 0.1 ug/mL): 1.46

O=C(O)c1ccccc1O
IRF Lucia reporter activity (RAW-Dual [3]; [5]): 1.16

CCN(CC)CCOC(=O)c1ccc(N)cc1.Cl
IRF Lucia reporter activity (RAW-Dual [3]; [5]): 1.15

CCN(CC)CCOC(=O)c1ccc(N)cc1.Cl (library stock concentration (final ~1000-fold dilution): 10 mM)
IRF Lucia reporter activity (RAW-Dual [1]; [4]): 1.05 | IRF Lucia reporter activity (RAW-Dual [1]; agonist: LPS (TLR4) 0.1 ug/mL): 1.3

Cc1cc2c(s1)Nc1ccccc1N=C2N1CCN(C)CC1
IRF Lucia reporter activity (RAW-Dual [3]; [5]): 0.957

Cc1cc2c(s1)Nc1ccccc1N=C2N1CCN(C)CC1 (library stock concentration (final ~1000-fold dilution): 10 mM)
IRF Lucia reporter activity (RAW-Dual [1]; [4]): 0.864 | IRF Lucia reporter activity (RAW-Dual [1]; agonist: LPS (TLR4) 0.1 ug/mL): 1.03

CN1C(=O)C(Cc2c[nH]c3ccccc23)NC1=S (stereo unspecified) (library stock concentration (final ~1000-fold dilution): 10 mM)
IRF Lucia reporter activity (RAW-Dual [1]; [4]): 0.553 | IRF Lucia reporter activity (RAW-Dual [1]; agonist: LPS (TLR4) 0.1 ug/mL): 3.04

CN1CCN2c3ccccc3Cc3ccccc3C2C1.Cl (stereo unspecified)
IRF Lucia reporter activity (RAW-Dual [3]; [5]): 1.29

CN1CCN2c3ccccc3Cc3ccccc3C2C1.Cl (stereo unspecified) (library stock concentration (final ~1000-fold dilution): 10 mM)
IRF Lucia reporter activity (RAW-Dual [1]; [4]): 0.917 | IRF Lucia reporter activity (RAW-Dual [1]; agonist: LPS (TLR4) 0.1 ug/mL): 1.02
